For 80 compounds, activation results are on record in PubChem BioAssay AID1346428 (National Center for Advancing Translational Sciences (NCATS), 2018).

The structures appear in SMILES notation. The whole screen tested about 48,000 compounds, of which about 1,200 (2.5%) were called active. Roughly 2% stayed inconclusive and do not appear here.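 Rule for the calls: active = activation of at least 60% and not above a set upper limit (about 1 call in 100 departs from these limits); inconclusive = activation of 40% to 60%, or above that upper limit; inactive = activation under 40%.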 Some of the results follow. *1 amine or outer side, *2 acyl side, *3 side chain or, on linkers, in order; H or OH if unused. Where a SMILES comes first, the peptide text is derived from it. Bridges are numbered along the chain shown (N, C = ends). Roman numbers before positions name the chains, in order. [ ]: non-standard residue; d: D form. Actinocin(9to1) = Cc1c2oc3c(C)ccc(C(=O)[*:1])c3nc-2c(C(=O)[*:2])c(N)c1=O; NMeV = CN[C@H](C(=O)O)C(C)C; Sar = CNCC(=O)O

The target of the assay is Probable G-protein coupled receptor 32 (Homo sapiens) (UniProt O75388). In words: qHTS for Agonists of Human Resolvin D1 Receptor DRV1. Note: 0% is about no effect. The note with it: CHO-K1 GPR32 beta-arrestin PathHunter luminescence, 90 min; at 76.9 µM; hits give high values; zero percent set by DMSO-only wells. The method in brief: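 PathHunter beta-arrestin recruitment in CHO-K1 cells stably expressing ProLink-tagged GPR32. Cells were exposed to compound for 90 min at 37 C, then chemiluminescence was read after 1 h detection at ambient temperature; DMSO served as basal control.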
UniProt O75388, sequence (O75388 whole entry, looked up): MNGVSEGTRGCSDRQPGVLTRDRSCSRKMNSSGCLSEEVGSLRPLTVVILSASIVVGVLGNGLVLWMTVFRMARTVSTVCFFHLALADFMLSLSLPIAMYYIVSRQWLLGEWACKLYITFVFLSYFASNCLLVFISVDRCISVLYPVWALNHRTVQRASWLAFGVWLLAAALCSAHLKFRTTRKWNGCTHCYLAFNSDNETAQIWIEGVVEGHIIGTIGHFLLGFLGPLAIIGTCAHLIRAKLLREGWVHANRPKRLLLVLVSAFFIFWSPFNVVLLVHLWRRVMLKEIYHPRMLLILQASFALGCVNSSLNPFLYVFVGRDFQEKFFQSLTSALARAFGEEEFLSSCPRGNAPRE
For the compound `CCc1cccc(C)c1Nc1c(-c2ccsc2)nc2ncccn12`, the activation is inactive: -23.4%.

On to `Cc1ccc2c(c1)c1c3n2CCN(C(=O)c2cccc(C(F)(F)F)c2)C3CCC1` (stereo not given), for which the activation is inactive: -26.6%. Take `Cc1ccc(C)c(Cn2c3ccccc3c3cnn(CC(=O)NCCc4ccccc4)c(=O)c32)c1`: the activation is inactive: -3.7%. Under `CCOc1c(Cl)cc(C(=O)N(Cc2ccc(N(C)C)cc2)Cc2ccco2)cc1Cl` stands inactive: -33.2%; under `COc1ccc(CNC(=O)C2CCCN(c3nnc(C)c4c(C)n(-c5ccc(C)cc5)nc34)C2)cc1` (stereo not given), inactive: -0.642%. Consider `COc1ccc2c(c1)c(CC(=O)OCC(=O)O)c(C)n2C(=O)c1ccc(Cl)cc1`, for which the activation is inactive: -17.6%. Under `CCC(Sc1nc2ncccc2o1)C(=O)Nc1ccc(OC)c(OC)c1` (stereo not given) stands inactive: -11.3%. `CCC1CN(C(=O)N2CCC(C(=O)N3CCN(c4ccccc4F)CC3)CC2)c2ccccc2O1` (stereo not given): the activation is inactive: -15.5%. Next, `CCOc1ccccc1N(C)C(=O)c1c2c(nc3ccccc13)C(=O)N(C1CCCCC1)C2`: inactive: -7.72%. Regarding `O=S(=O)(c1ccc(Cl)cc1Cl)n1ccnc1`, the activation was inactive: 12.3%. Next, `CSc1oc(-c2cccs2)nc1S(=O)(=O)c1ccc(Br)cc1`: inactive: -26.3%; `COc1ccc(C2CC(=O)c3cc(-c4nc(-c5cccc(Cl)c5)cs4)c(=O)[nH]c3C2)cc1` (stereo not given): inactive: 18.7%; `Cc1ccc2c(=O)cc(C(=O)Nc3sc4c(c3C(=O)NCC3CCCO3)CCCC4)oc2c1` (stereo not given): inactive: 4.27%. Regarding `CCCNC(=O)CN1CCN(c2ccc(NC(=O)c3ccc(OC)cc3)cc2C(=O)O)CC1`, the activation is inactive: -4.56%. Under `COc1ccc(CNC(=O)c2ccc(NC(=O)N3CCSc4ncccc43)cc2)cc1` stands inactive: 1.39%; under `Cc1ccccc1C(=O)N1CCC(C(=O)Nc2ccc(F)cc2F)CC1`, inactive: 38.8%. Under `Cc1nc(N2CCOCC2)c2c(C(=O)N3CCN(c4ccccc4)CC3)c(C)oc2n1` stands inactive: -8.25%.

With `Cc1ccc(S(=O)(=O)c2nc(-c3ccccc3F)oc2NCc2ccccc2)cc1`, the activation was inactive: -4.67%. Under `Cc1c2oc3c(C)ccc(C(=O)N[C@@H]4C(=O)N[C@H](C(C)C)C(=O)N5CCC[C@H]5C(=O)N(C)CC(=O)N(C)[C@@H](C(C)C)C(=O)O[C@@H]4C)c3nc-2c(C(=O)N[C@@H]2C(=O)N[C@H](C(C)C)C(=O)N3CCC[C@H]3C(=O)N(C)CC(=O)N(C)[C@@H](C(C)C)C(=O)O[C@@H]2C)c(N)c1=O` (I: T[dV]P[Sar][NMeV] / II: T[dV]P[Sar][NMeV]; ester I:1-I:C, II:1-II:C; linker I:N-II:N via Actinocin(9to1)) stands inactive: -4.42%; under `Cc1cc2c(cc3c(SCC(=O)Nc4ccc(Cl)cc4F)nncn32)o1`, inactive: -6.89%; under `CCOC(=O)c1cccc(NC(=O)NC(C)c2c(-n3cccc3)sc3c2CCN(C)C3)c1` (stereo not given), inactive: -22.3%.

With `O=C(COc1ccccc1F)Nc1ccc(OCc2cc(=O)n3ccccc3n2)cc1`, the activation is inactive: -10.8%.

As to `COc1ccc(CC(=O)N2CCc3cc(OC)c(OC)cc3C2COc2ccc3c(C)cc(=O)oc3c2)cc1OC` (stereo not given), the activation is inactive: -2.99%.

Turning to `COCCCN1C(=O)c2oc3ccccc3c(=O)c2C12C(=O)N(C)c1ccccc12` (stereo not given), the activation is inactive: -19.9%. Next, `CCOc1ccc(NC(=O)CCc2c(C)nc3c(-c4ccccc4)c(C)nn3c2C)cc1`: inactive: -0.457%. Turning to `Cc1ccc(CNC(=O)CSC2=Nc3ccccc3N=C(c3ccc(F)cc3)C2)cc1`, the activation is inactive: -9.18%.

Consider `O=c1ccc2cc(S(=O)(=O)Nc3ccc(OC(F)(F)F)cc3)ccc2[nH]1`, for which the activation was inactive: -6.28%. With `COC(=O)c1ccc(Cn2c(SCc3ccc(F)cc3)nc3ccncc32)cc1`, the activation is inactive: -1.21%. With `O=C(O)c1ccc(Cn2c(SCc3ccc(F)cc3)nc3ccncc32)cc1`, the activation is inactive: -3.07%. Under `Cc1ccc2nc(NC(=O)CSc3nccn3Cc3ccc(F)cc3)sc2c1` stands inactive: 22.8%; under `COCCNc1ccc2cc(S(=O)(=O)N3CCCCC3)ccc2n1`, inactive: 4.91%; under `COCCNC(=O)CCCn1c(SCC(=O)NCc2ccc(C)cc2)nc2c(sc3ccccc32)c1=O`, inactive: -8.83%.

On to `CCC(C)NC(=O)c1sc2nc(C)c(C(=O)Nc3ccc(C)cc3C)c(-c3ccc(NC(C)=O)cc3)c2c1N` (stereo not given), for which the activation was inactive: -21.8%. Under `COc1ccc(Cn2c(C(=O)O)c(CNCc3ccc(SC)cc3)c3ccc(OC)cc32)cc1` stands inactive: -6.08%; under `CC(C)NC(=O)CN1C(=O)CCn2nc(-c3cn(C)c4ccccc34)cc21`, inactive: -8.27%; under `Cc1ccccc1Cn1c(=O)n(-c2ccc(Cl)cc2)c(=O)c2c3c(sc21)CCCC3`, inactive: 5.89%. For the compound `CCc1ccc(NS(=O)(=O)c2[nH]ncc2C(=O)OC)cc1`, the activation was inactive: -30.7%. As for `Cc1cc(F)ccc1NC(=O)C1CCC(CNS(=O)(=O)c2ccc3c(c2)CCCC(=O)N3)CC1` (stereo not given), the activation is inactive: -26.4%. As for `CCCS(=O)(=O)N1CCC(C(=O)NCCOC)CC1`, the activation is inactive: 0.438%.

For the compound `Cc1ccccc1NC(=O)c1sc2nc3c(cc2c1N)CN(Cc1ccccc1)CC3`, the activation was inactive: 15.3%.

As to `COc1ccc(OC)c(S(=O)(=O)NCC(c2cccs2)S(=O)(=O)c2ccc(F)cc2)c1` (stereo not given), the activation was inactive: -4.08%. On to `COc1cccc(N2CCN(C(=O)CN3CCSc4ccccc43)CC2)c1`, for which the activation is inactive: 43.8%. As for `COc1ccccc1CNc1ncnc2c1cnn2-c1ccc(C)cc1`, the activation is inactive: 30%. Next, `Cc1ccc(-n2nc(C)c3c(C)cc(=O)n(CC(=O)Nc4cccc(C)c4C)c32)cc1`: inactive: -3.66%. As to `O=C(Nc1cc2c(cc1C(=O)c1ccccc1Br)OCCO2)c1cccc(Cl)c1`, the activation is inactive: 29.6%. Under `O=C(c1cc2c(=O)oc3ccccc3c2s1)N1CCN(c2ccccc2)CC1` stands inactive: 4.57%; under `COc1ccc2c(c1)c1c(c(=O)n(-c3cccc(C)c3)c(=O)n1Cc1cccc(Cl)c1)n2C`, inactive: -5.18%; under `Cc1ccc(-c2noc(-c3nnn(-c4cccc(C(F)(F)F)c4)c3N)n2)cc1`, inactive: 1.87%. Turning to `COc1ccc(-c2nn(-c3ccccc3)cc2C2NC(=O)NC(C)=C2C(=O)OC(C)C)cc1OC` (stereo not given), the activation was inactive: -19.3%. Next, `O=S(=O)(c1ccc2nc(N3CCN(c4ccccc4F)CC3)ccc2c1)N1CCCCC1`: inactive: -19.4%; `CC[C@@H]1Cc2cc(O)ccc2C2=C1c1ccc(O)cc1C[C@H]2CC`: inactive: -11.7%. `COc1ccc(N2C(=O)CSC23C(=O)N(Cc2cccc(F)c2)c2ccccc23)cc1Cl` (stereo not given): the activation was inactive: 11.5%. For `Cc1nc(-n2nc(C)c(CCC(C)C)c2C)sc1C(=O)Nc1ccc(Cl)cc1`, the activation is inactive: 3.81%. Under `O=C(Cn1ncc2c3ccccc3n(Cc3ccc(F)cc3)c2c1=O)NCc1ccccn1` stands inactive: -0.389%; under `Cc1cc(-c2ccc(C)c(S(=O)(=O)NCC3CCN(Cc4ccccc4F)CC3)c2)on1`, inactive: -35.6%; under `O=C(NCc1ccccc1)C(=O)Nc1c2c(nn1-c1ccccc1)CSC2`, inactive: -20.7%. Under `Cc1ccc(C(c2c(O)cc(C)n(Cc3ccco3)c2=O)N2CCC(C)CC2)cc1` (stereo not given) stands inactive: -9.43%. Under `COc1ccc(OC)c(CNCc2c(C(=O)O)n(Cc3cccc(F)c3)c3cc(OC)ccc23)c1` stands inactive: 4.52%. For the compound `Cc1cc(C)cc(NC(=O)C2CC(=O)N(c3ccccc3)C2)c1` (stereo not given), the activation is active: 118%. Under `Cc1ccccc1CCNC(=O)c1ccc2c(c1)nc1n2CCCCC1` stands inactive: -4.42%. Under `COc1ccc2cc3[n+](cc2c1OC)CCc1cc2c(cc1-3)OCO2` stands inactive: 34.4%; under `Cc1cccc(-c2nc(CN3CCCC(C(=O)NCCc4ccc(Cl)cc4)C3)c(C)o2)c1` (stereo not given), inactive: 49.3%; under `Cc1ccc(-c2nc3ccccc3o2)cc1NC(=O)Cc1ccc(Cl)cc1`, inactive: 9.54%. Under `O=C(CCn1c(=O)c2sccc2n(Cc2ccc(F)cc2Cl)c1=O)NCc1ccc2c(c1)OCO2` stands inactive: -17%. `O=C(Nc1sc2c(c1C(=O)NCC1CCCO1)CCCC2)c1cc(=O)c2ccccc2o1` (stereo not given): the activation was inactive: -4.16%. Under `CCOC(=O)c1cccc(NC(=O)c2cnc3sc(N4CCOCC4)nn3c2=O)c1` stands inactive: 12.6%; under `Cc1ccc(-c2cc(C(=O)Oc3ccc(C#N)cc3)no2)cc1C`, inactive: 9.71%; under `COC(=O)c1ccccc1NC(=O)CSc1nc(C)c(Cl)c(C)c1C#N`, inactive: -9.72%. As to `Cc1ccc2c(c1)c1c(c(=O)n(Cc3ccccc3)c(=O)n1CC(=O)Nc1ccccc1F)n2C`, the activation is inactive: -0.861%. Next, `CCCCCCCCCCOCC(O)CN` (stereo not given): inactive: -28.9%; `COc1ccc(S(=O)(=O)NCc2nc3nc(C)cc(C)n3n2)cc1OC`: inactive: 0.226%; `CCc1nn(CC(=O)Nc2ccc(NC(C)=O)cc2)c(=O)c2cc3sccc3n12`: inactive: -1.73%. Under `COc1ccc(CNC(=O)CSc2c3c(nc4ccc(Cl)cc24)CCCC3)cc1` stands inactive: -15.7%. Under `O=C(Cn1cnc2onc(-c3ccc(Cl)cc3)c2c1=O)Nc1ccc(F)cc1` stands inactive: -10.4%.

With `CCOc1ccc(NC(=O)N2CCN3CCCCC3C2)cc1` (stereo not given), the activation was inactive: -14.4%. For the compound `CCOC(=O)c1ccc(N2C(=O)c3n[nH]c(-c4ccco4)c3C2c2cccc(O)c2)cc1` (stereo not given), the activation was inactive: 38.2%. Next, `Cc1ccc(S(=O)(=O)N(CCc2ccccc2)CC(=O)Nc2ccc(Br)cc2)cc1`: inactive: 0.0174%; `CN(C)CCN(Cc1ccsc1)c1ccccn1`: inactive: 12.6%. Consider `COCCNC(=O)CN1C(=O)c2cccnc2Oc2ccc(Cl)cc21`, for which the activation was inactive: -1.36%. Under `CCc1cccc(CC)c1NC(=O)CCS(=O)(=O)c1ccc2c(c1)CCN2C(C)=O` stands inactive: -4.31%.
